# Source: the supplement of paper PMC10126150
# Values marked as one replicate rest on one cluster of the flow cell; about a third of the high ones do not repeat.
# System: ATP
# Assay: switch fluorescence ratio, 500 uM ATP over buffer (Cy3 cluster intensity, sum of 5 cycles each) (fold (ratio)); higher = stronger signal-on switching upon ATP binding; sequences stand for … in TCGTCGGCAGCGTCAGATGTGTATAAGAGACAGTTTTTTTTTTTTTTTTTTTTTTTTT…TC
# Conditions: aptamer strand: ATP DNA aptamer (quencher-CACCTGGGGGAGTATTGCGGAGGAAGG + anchor), 100 nM annealed; ATP concentration: 500 uM; one replicate
# Outline: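 Exposure to 500 uM ATP lasted 15 min at 22 °C before imaging, and a selection-buffer image was taken beforehand, for Cy3-labelled switching-strand clusters on a modified Illumina MiSeq flow-cell annealed to 100 nM quencher-labelled ATP aptamer. Five buffer/ATP cycles were run with NaOH stripping and re-annealing between them. The fluorescence ratio per cluster is summed target-cycle over summed buffer-cycle Cy3 intensity, averaged per switch-domain sequence. Clusters outside 100-1000 RFU were excluded.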
row,Sequence,switch fluorescence ratio
1,TTGAGATACT,1.09
2,TTGAGATTG,0.945
3,TTGAGCCAAT,2.19
4,TTGAGCCGGG,1
5,TTGAGGAGCT,0.98
6,TTGAGGGCT,1.03
7,TTGAGGGTA,0.99
8,TTGAGGTGA,1.08
9,TTGAGTAGAA,1.01
10,TTGAGTCAGC,1.03
11,TTGAGTGCGT,1
12,TTGAGTTGTG,0.962
13,TTGATACTAA,0.994
14,TTGATACTCT,1.03
15,TTGATACTGT,1.04
16,TTGATAGCGT,0.997
17,TTGATCGTTG,1.02
18,TTGATGCGTA,1.05
19,TTGATGTCTA,1.01
20,TTGATTCACG,1.01
21,TTGATTCTTA,0.964
22,TTGATTGTCG,1.04
23,TTGCAATAGC,1.74
24,TTGCACACC,1.08
25,TTGCACATTC,1.11
26,TTGCAGAAAG,1.02

row,Sequence,switch fluorescence ratio
1,TTGCAGAGGT,1.02
2,TTGCAGCGTA,1.02
3,TTGCAGGTG,3.04
4,TTGCATCGTA,1.03
5,TTGCATCTGG,0.974
6,TTGCATGGTA,1.02
7,TTGCCACCAA,1
8,TTGCCACTCG,1.02
9,TTGCCAGATA,0.972
10,TTGCCATTTT,1
11,TTGCCCGGGA,1.03
12,TTGCCGAGAA,1
13,TTGCCGAGTC,0.965
14,TTGCGACTGG,0.976
15,TTGCGCATT,1.04
16,TTGCGCTCAG,1.01
17,TTGCGGCCTG,1.06
18,TTGCGGGACT,1.17
19,TTGCGGGGAT,0.977
20,TTGCGGGTGT,1.01
21,TTGCGGTGCC,1.01
22,TTGCGGTTA,0.947
23,TTGCGTAAG,0.97
24,TTGCGTAGA,1.02
25,TTGCGTGAGT,1.04
26,TTGCGTTTTC,1.06

row,Sequence,switch fluorescence ratio
1,TTGCTACATG,0.968
2,TTGCTATCCG,0.98
3,TTGCTCTGGC,0.896
4,TTGCTGAGAG,0.971
5,TTGCTGAGGG,0.98
6,TTGCTGGGTA,0.946
7,TTGCTTGGCG,0.985
8,TTGGAATCAT,0.964
9,TTGGAATTA,1.01
10,TTGGACACTC,1.01
11,TTGGACTATG,0.994
12,TTGGAGGATA,0.984
13,TTGGAGTGC,1.02
14,TTGGATCTTT,1.03
15,TTGGATGCAC,1.03
16,TTGGATGGGC,1.04
17,TTGGCAACCG,1.05
18,TTGGCAAGCG,1.04
19,TTGGCAATG,1.04
20,TTGGCAGGAT,1.18
21,TTGGCCATCA,1.01
22,TTGGCCTAAC,1.07
23,TTGGCGACGC,1.01
24,TTGGCGGAAG,0.997
25,TTGGCGGCGC,1.03
26,TTGGCTCC,1.11

row,Sequence,switch fluorescence ratio
1,TTGGCTCTGT,0.996
2,TTGGCTGCAC,1.02
3,TTGGGACTGA,0.985
4,TTGGGAGGAA,1.01
5,TTGGGATTTG,0.973
6,TTGGGCCGAA,0.982
7,TTGGGCGCTT,1.95
8,TTGGGGTAGT,0.984
9,TTGGGTATCA,0.962
10,TTGGGTATCC,0.928
11,TTGGGTGAGA,1.03
12,TTGGGTGGAC,0.991
13,TTGGTAGGGA,1.01
14,TTGGTAGTAA,0.998
15,TTGGTCCGGG,0.978
16,TTGGTCGGTA,1
17,TTGGTCGTAT,0.981
18,TTGGTCTATT,0.986
19,TTGGTCTCCT,1.02
20,TTGGTCTGG,0.989
21,TTGGTGCTCT,1.02
22,TTGGTGGCAT,1.01
23,TTGGTGTCAA,0.962
24,TTGTAAAGCT,1.13
25,TTGTAAGCGC,0.927
26,TTGTAATACA,1.08

row,Sequence,switch fluorescence ratio
1,TTGTACCTAA,1.1
2,TTGTACGACG,1.07
3,TTGTACTATG,1.01
4,TTGTAGGCGC,1.03
5,TTGTATATAC,1.02
6,TTGTATCGAC,1.05
7,TTGTATCTGT,0.947
8,TTGTATGAGC,0.988
9,TTGTATGCCG,1.04
10,TTGTATTGAC,1.02
11,TTGTATTTCG,1.01
12,TTGTCGAGTG,1.02
13,TTGTCGGTGT,0.994
14,TTGTCGTAAA,0.978
15,TTGTCTATCT,0.963
16,TTGTCTGACA,1.01
17,TTGTCTTAGC,0.928
18,TTGTGACAGG,0.952
19,TTGTGACTG,1
20,TTGTGAGTC,0.974
21,TTGTGATCAA,1.02
22,TTGTGCCCGC,1.48
23,TTGTGCCTGA,1.02
24,TTGTGGAGTA,1
25,TTGTGGCCCC,1.02
26,TTGTGGCCCG,0.945

row,Sequence,switch fluorescence ratio
1,TTGTGGGATT,0.983
2,TTGTGGTTGA,1.05
3,TTGTGTACCT,1.06
4,TTGTGTGCCG,1.03
5,TTGTTAATTA,1.01
6,TTGTTACAGC,1.04
7,TTGTTAGGGA,0.988
8,TTGTTCACGG,1.01
9,TTGTTCATGC,0.974
10,TTGTTGACTG,0.97
11,TTGTTGGC,1.05
12,TTGTTGGCCC,0.977
13,TTGTTGTGCG,0.981
14,TTGTTTGACT,0.99
15,TTGTTTTTAA,1.02
16,TTTAAAAATC,0.996
17,TTTAAAGAAC,1
18,TTTAAATATA,0.997
19,TTTAAATATC,1.03
20,TTTAACCTCA,1.01
21,TTTAATAGTA,0.96
22,TTTAATCCCA,1.03
23,TTTAATTGGA,1.02
24,TTTACAAGAG,0.976
25,TTTACAAGCT,0.997
26,TTTACACATA,1.1

row,Sequence,switch fluorescence ratio
1,TTTACAGACG,1.12
2,TTTACATCTG,1.09
3,TTTACATTTC,1.08
4,TTTACCGCAG,1.31
5,TTTACCGGGG,1.03
6,TTTACGATCT,1.01
7,TTTACGCAGG,1.06
8,TTTACGCATT,1.04
9,TTTACGTCCC,1.12
10,TTTACTCGCT,1.56
11,TTTACTGACG,1.12
12,TTTACTGTTA,1.02
13,TTTACTTAGA,1.06
14,TTTAGAATAG,0.978
15,TTTAGAGCTA,1.07
16,TTTAGATAG,1.04
17,TTTAGATCGT,1.01
18,TTTAGCCTTG,0.992
19,TTTAGCGGTA,0.982
20,TTTAGGCAGA,1.01
21,TTTAGGGTT,0.964
22,TTTAGTCAAA,1.06
23,TTTAGTGGTC,1.01
24,TTTAGTTGGC,1.03
25,TTTATCAATC,1.13
26,TTTATCATAT,1.06

row,Sequence,switch fluorescence ratio
1,TTTATCCACC,1.01
2,TTTATCCCGG,1.07
3,TTTATCGGCG,1.02
4,TTTATCTGAG,1.09
5,TTTATGCGTA,0.959
6,TTTATTCATC,0.977
7,TTTATTCGAC,1.03
8,TTTCAACACT,1.07
9,TTTCAATTT,0.987
10,TTTCAGATTA,1
11,TTTCAGCTTT,1.04
12,TTTCAGGCTG,1.01
13,TTTCATAAAA,1.05
14,TTTCATAGCG,1.01
15,TTTCATCACG,1.01
16,TTTCATCCTA,1.2
17,TTTCATGCTT,0.984
18,TTTCATGTAA,0.982
19,TTTCCAAGA,1.36
